# Reference: the supplement of paper PMC8728848
# The list shows a part of the results.
# B1: CC1G-10077 (Coprinopsis cinerea), A8NDT7 (protein)
# chain: MALNEGVYWIRNSRFTNKVLDLDAANVAKGTSILDFNEHGTFNENHNQLWIVERFQSRDTYLIRSVHSNLVLDLSQGLSANGTPILCWTQHGGTNQQWRIEWVKDDNKTPLYRIVSVATGTAISHNEDDSSAYTVAWSVDDGPKQLWSFDPFVTPLLYRLRVKSTSRVLDLAAASADNGTLALAWEQHTAITKRNQLWWLPYRSGAEEYTIQCLETSTVADLSGGNSGNGTPIYGWQSHGGRNQQWKFEPTSDSGDYYHIKNVEGGSVMDAYMNDSQKRVGGWSNNGGDNQKWLLDPLPSPGPGWVLIQNGGTGKFLCSTPSGDIGTADGPETVYDYSVQWRFIQREYTGVYHVVNRATGAYLRQIGTSMPSIGLAEENDDELKDWWMLETYDNSEIGLASIISRWTGNVLDHYGGVSVQALDNNTENSYRSWAIIPARDWLTSFSLVNGQGGLCLAAQYAREETRLSTTANVNDFHAQWVFRKPSGSSGYTIQNKYNNHYVGGTSARWELVVCCNKYFGIRNTSTQKYLAIEDGQVTFQDQDMTDRKQCWELCSGRATDTSGNDYDLIYMDDDLLEVMIPWVGDKQGDLKHYIEKRATKKPPKDKGGWQLPAAGLIKKPKFNDIRQLLQELIEQWEWDVVNEEREQIQTLVSIDEAEARRLLGRRPHPDIVAAYQRSRSSTLFRIDRQGYFNIAGDRYVNIQGQYGDDSYFHIALPVGVRFGREQIRRFLRDSLDRSTSVTITPTTCKPPSGGPDYNRDPDSDGDNSWIKWTIAVVGTSAIKHSEL
# Assays:
# Assay in all cases: glycan array binding signal (z-score within array); higher = stronger binding
# Details in all cases: glycan notation: IUPAC condensed, linker removed
# [1] = target: Gal(b1-3)GlcNAc(b1-2)Man(a1-3)[Gal(b1-3)GlcNAc(b1-2)Man(a1-6)]Man(b1-4)GlcNAc(b1-4)GlcNAc
# Procedure, shortened: (§1)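 From the Consortium for Functional Glycomics database, 3228 arrays were curated, keeping only those whose protein sequence was available. Binding is given as a within-array Z-score averaged across arrays sharing a protein sequence and across linkers. Negative Z-scores can be read as non-binding.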
# [2] = target: Gal(b1-3)GlcNAc(b1-2)Man(a1-3)[Gal(b1-3)GlcNAc(b1-2)Man(a1-6)]Man(b1-4)GlcNAc(b1-4)[Fuc(a1-6)]GlcNAc
# Procedure, shortened: as §1
# [3] = target: Gal(b1-3)GlcNAc(b1-2)Man(a1-3)[GlcNAc(b1-4)][Gal(b1-3)GlcNAc(b1-2)Man(a1-6)]Man(b1-4)GlcNAc(b1-4)GlcNAc
# Procedure, shortened: as §1
# [4] = target: Gal(b1-3)GlcNAc(b1-2)[Gal(b1-3)GlcNAc(b1-6)]Man(a1-6)[Gal(b1-3)GlcNAc(b1-2)Man(a1-3)]Man(b1-4)GlcNAc(b1-4)GlcNAc
# Procedure, shortened: as §1
# [5] = target: Gal(b1-3)GlcNAc(b1-3)Gal(b1-3)GlcNAc
# Procedure, shortened: as §1
# [6] = target: Gal(b1-3)GlcNAc(b1-3)Gal(b1-4)Glc
# Procedure, shortened: as §1
# [7] = target: Gal(b1-3)GlcNAc(b1-3)Gal(b1-4)GlcNAc
# Procedure, shortened: as §1
# [8] = target: Gal(b1-3)GlcNAc(b1-3)Gal(b1-4)GlcNAc(b1-2)Man(a1-3)[Gal(b1-3)GlcNAc(b1-3)Gal(b1-4)GlcNAc(b1-2)Man(a1-6)]Man(b1-4)GlcNAc(b1-4)GlcNAc
# Procedure, shortened: as §1
# [9] = target: Gal(b1-3)GlcNAc(b1-3)Gal(b1-4)GlcNAc(b1-2)[Gal(b1-3)GlcNAc(b1-3)Gal(b1-4)GlcNAc(b1-6)]Man(a1-6)[Gal(b1-3)GlcNAc(b1-3)Gal(b1-4)GlcNAc(b1-2)Man(a1-3)]Man(b1-4)GlcNAc(b1-4)[Fuc(a1-6)]GlcNAc
# Procedure, shortened: as §1
# [10] = target: Gal(b1-3)GlcNAc(b1-3)Gal(b1-4)GlcNAc(b1-3)Gal(b1-4)GlcNAc(b1-2)[Gal(b1-3)GlcNAc(b1-3)Gal(b1-4)GlcNAc(b1-3)Gal(b1-4)GlcNAc(b1-6)]Man(a1-6)[Gal(b1-3)GlcNAc(b1-3)Gal(b1-4)GlcNAc(b1-3)Gal(b1-4)GlcNAc(b1-2)Man(a1-3)]Man(b1-4)GlcNAc(b1-4)[Fuc(a1-6)]GlcNAc
# Procedure, shortened: as §1
# [11] = target: Gal(b1-3)GlcNAc(b1-3)Gal(b1-4)GlcNAc(b1-6)[Gal(b1-3)GlcNAc(b1-3)]Gal(b1-4)Glc
# Procedure, shortened: as §1
# [12] = target: Gal(b1-3)GlcNAc(b1-3)Gal(b1-4)[Fuc(a1-3)]GlcNAc
# Procedure, shortened: as §1
# [13] = target: Gal(b1-3)GlcNAc(b1-3)Gal(b1-4)[Fuc(a1-3)]GlcNAc(b1-6)[Gal(b1-3)GlcNAc(b1-3)]Gal(b1-4)Glc
# Procedure, shortened: as §1
# [14] = target: Gal(b1-3)GlcNAc(b1-3)GalNAc
# Procedure, shortened: as §1
# [15] = target: Gal(b1-3)GlcNAc(b1-6)Gal(b1-4)GlcNAc
# Procedure, shortened: as §1
# [16] = target: Gal(b1-3)GlcNAc(b1-6)GalNAc
# Procedure, shortened: as §1
# [17] = target: Gal(b1-3)GlcNAc(b1-6)[Gal(b1-3)]GalNAc
# Procedure, shortened: as §1
# [18] = target: Gal(b1-3)GlcNAc6S
# Procedure, shortened: as §1
# [19] = target: Gal(b1-3)[Fuc(a1-4)]GlcNAc
# Procedure, shortened: as §1
# [20] = target: Gal(b1-3)[Fuc(a1-4)]GlcNAc(b1-2)Man
# Procedure, shortened: as §1
# [21] = target: Gal(b1-3)[Fuc(a1-4)]GlcNAc(b1-2)Man(a1-3)[Gal(b1-3)[Fuc(a1-4)]GlcNAc(b1-2)Man(a1-6)]Man(b1-4)GlcNAc(b1-4)[Fuc(a1-6)]GlcNAc
# Procedure, shortened: as §1
# [22] = target: Gal(b1-3)[Fuc(a1-4)]GlcNAc(b1-3)Gal(b1-3)[Fuc(a1-4)]GlcNAc
# Procedure, shortened: as §1
# [23] = target: Gal(b1-3)[Fuc(a1-4)]GlcNAc(b1-3)Gal(b1-4)[Fuc(a1-3)]GlcNAc
# Procedure, shortened: as §1
# [24] = target: Gal(b1-3)[Fuc(a1-4)]GlcNAc(b1-6)GalNAc
# Procedure, shortened: as §1
# [25] = target: Gal(b1-3)[GlcNAc(b1-6)]GalNAc
# Procedure, shortened: as §1
# [26] = target: Gal(b1-3)[Neu5Ac(a2-6)]GalNAc
# Procedure, shortened: as §1
# [27] = target: Gal(b1-3)[Neu5Ac(a2-6)]GlcNAc(b1-4)Gal(b1-4)Glc
# Procedure, shortened: as §1
# [28] = target: Gal(b1-3)[Neu5Ac(b2-6)]GalNAc
# Procedure, shortened: as §1
# [29] = target: Gal(b1-4)Gal
# Procedure, shortened: as §1
# [30] = target: Gal(b1-4)GalNAc(a1-3)[Fuc(a1-2)]Gal(b1-4)GlcNAc
# Procedure, shortened: as §1
binder,measurement,setting,value
B1,glycan array binding signal (z-score),[1],1.39
same,glycan array binding signal (z-score),[2],0.598
same,glycan array binding signal (z-score),[3],1.23
same,glycan array binding signal (z-score),[4],1.07
same,glycan array binding signal (z-score),[5],0.08
same,glycan array binding signal (z-score),[6],0.089
same,glycan array binding signal (z-score),[7],0.142
same,glycan array binding signal (z-score),[8],0.603
same,glycan array binding signal (z-score),[9],0.686
same,glycan array binding signal (z-score),[10],1.32
same,glycan array binding signal (z-score),[11],1.96
same,glycan array binding signal (z-score),[12],0.199
same,glycan array binding signal (z-score),[13],0.849
same,glycan array binding signal (z-score),[14],-0.054
same,glycan array binding signal (z-score),[15],2.12
same,glycan array binding signal (z-score),[16],0.815
same,glycan array binding signal (z-score),[17],-0.082
same,glycan array binding signal (z-score),[18],-0.281
same,glycan array binding signal (z-score),[19],-0.466
same,glycan array binding signal (z-score),[20],-0.347
same,glycan array binding signal (z-score),[21],-0.361
same,glycan array binding signal (z-score),[22],-0.438
same,glycan array binding signal (z-score),[23],-0.469
same,glycan array binding signal (z-score),[24],-0.201
same,glycan array binding signal (z-score),[25],0.35
same,glycan array binding signal (z-score),[26],-0.431
same,glycan array binding signal (z-score),[27],-0.294
same,glycan array binding signal (z-score),[28],-0.348
same,glycan array binding signal (z-score),[29],-0.402
same,glycan array binding signal (z-score),[30],0.803
